The target of test [1] is T1, EML3 (untagged mouse Eml3 expression construct) (mouse) (UniProt Q8VC03).
T1 sequence: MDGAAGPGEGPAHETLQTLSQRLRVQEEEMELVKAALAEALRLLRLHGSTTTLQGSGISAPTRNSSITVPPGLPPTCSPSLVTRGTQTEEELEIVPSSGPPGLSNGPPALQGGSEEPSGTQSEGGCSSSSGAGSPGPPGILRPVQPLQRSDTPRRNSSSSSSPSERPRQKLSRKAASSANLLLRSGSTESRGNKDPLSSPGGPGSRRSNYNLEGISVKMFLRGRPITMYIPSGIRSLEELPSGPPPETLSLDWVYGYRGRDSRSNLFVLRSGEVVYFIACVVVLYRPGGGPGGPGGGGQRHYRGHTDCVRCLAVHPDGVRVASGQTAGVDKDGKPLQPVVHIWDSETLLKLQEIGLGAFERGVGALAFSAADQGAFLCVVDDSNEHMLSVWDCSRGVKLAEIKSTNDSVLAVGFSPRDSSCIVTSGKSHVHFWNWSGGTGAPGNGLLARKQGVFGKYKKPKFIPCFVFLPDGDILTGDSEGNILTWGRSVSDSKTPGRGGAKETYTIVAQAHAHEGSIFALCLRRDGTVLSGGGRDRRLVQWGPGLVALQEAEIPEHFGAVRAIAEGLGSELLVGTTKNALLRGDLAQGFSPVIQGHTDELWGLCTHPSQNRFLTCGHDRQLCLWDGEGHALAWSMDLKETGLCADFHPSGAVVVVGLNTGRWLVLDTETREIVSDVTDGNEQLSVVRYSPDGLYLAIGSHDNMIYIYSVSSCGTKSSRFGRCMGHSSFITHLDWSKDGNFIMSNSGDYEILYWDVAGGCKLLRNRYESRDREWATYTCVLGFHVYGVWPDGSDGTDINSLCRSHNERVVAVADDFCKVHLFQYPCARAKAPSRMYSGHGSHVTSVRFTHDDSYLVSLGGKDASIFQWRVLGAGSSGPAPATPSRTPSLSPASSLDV
Kind of test: co-IP; HEK293T cells co-transfected with expression constructs; lysis in 1% NP-40 buffer; immunoprecipitation with EML3 rabbit polyclonal antibody and anti-rabbit IgG Dynabeads; immunoblotting. (In general: A western blot detects proteins with antibodies after separation by electrophoresis.)

The chains behind the UniProt entries cited, without tags or fusion partners.
UniProt P62259: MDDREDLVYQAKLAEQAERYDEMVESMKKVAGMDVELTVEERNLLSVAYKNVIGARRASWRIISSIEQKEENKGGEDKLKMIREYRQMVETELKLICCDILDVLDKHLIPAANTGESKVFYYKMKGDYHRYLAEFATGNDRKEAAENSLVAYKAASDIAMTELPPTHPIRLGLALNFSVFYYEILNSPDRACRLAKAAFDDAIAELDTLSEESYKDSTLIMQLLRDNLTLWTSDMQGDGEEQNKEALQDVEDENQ
UniProt P32958: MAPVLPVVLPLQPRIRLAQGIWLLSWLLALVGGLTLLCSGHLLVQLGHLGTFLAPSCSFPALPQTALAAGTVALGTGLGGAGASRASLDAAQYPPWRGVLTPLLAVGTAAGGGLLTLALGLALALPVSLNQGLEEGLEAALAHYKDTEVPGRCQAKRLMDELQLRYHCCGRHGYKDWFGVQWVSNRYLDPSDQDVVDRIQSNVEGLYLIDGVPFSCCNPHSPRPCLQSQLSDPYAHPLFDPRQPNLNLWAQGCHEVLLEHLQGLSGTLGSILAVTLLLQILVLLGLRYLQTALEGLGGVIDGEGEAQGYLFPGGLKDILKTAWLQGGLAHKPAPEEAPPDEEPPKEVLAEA
UniProt P63168: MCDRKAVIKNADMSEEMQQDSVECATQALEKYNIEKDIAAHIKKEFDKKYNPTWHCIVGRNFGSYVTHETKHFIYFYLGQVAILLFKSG

Test [2] concerns the target T2, EML3 TQT86AAA mutant protein (custom made Eml3^TQT86AAA construct) (mouse) (UniProt Q8VC03).
T2 sequence: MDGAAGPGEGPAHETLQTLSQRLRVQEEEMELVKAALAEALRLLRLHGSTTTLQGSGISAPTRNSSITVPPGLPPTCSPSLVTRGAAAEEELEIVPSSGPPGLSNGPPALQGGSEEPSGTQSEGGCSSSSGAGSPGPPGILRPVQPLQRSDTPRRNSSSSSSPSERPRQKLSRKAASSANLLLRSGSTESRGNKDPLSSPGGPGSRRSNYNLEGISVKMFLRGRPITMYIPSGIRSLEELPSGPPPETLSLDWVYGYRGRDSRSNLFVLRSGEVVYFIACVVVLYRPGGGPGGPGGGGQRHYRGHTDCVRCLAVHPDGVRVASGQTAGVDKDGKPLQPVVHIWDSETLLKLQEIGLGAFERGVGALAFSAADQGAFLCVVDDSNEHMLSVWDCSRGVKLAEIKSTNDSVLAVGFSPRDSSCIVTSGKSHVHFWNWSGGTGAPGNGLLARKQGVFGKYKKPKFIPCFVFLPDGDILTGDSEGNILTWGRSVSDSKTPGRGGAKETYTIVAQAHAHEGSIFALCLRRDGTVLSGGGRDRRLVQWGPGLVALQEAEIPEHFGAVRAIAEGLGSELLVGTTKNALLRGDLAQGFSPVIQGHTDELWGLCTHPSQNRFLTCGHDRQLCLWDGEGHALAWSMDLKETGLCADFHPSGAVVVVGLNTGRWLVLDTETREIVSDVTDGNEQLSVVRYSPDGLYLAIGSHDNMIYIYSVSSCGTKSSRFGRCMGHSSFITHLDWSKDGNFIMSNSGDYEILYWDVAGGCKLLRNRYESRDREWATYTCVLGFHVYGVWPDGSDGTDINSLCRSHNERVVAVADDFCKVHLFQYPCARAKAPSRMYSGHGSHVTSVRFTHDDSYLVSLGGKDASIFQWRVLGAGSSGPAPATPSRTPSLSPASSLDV
The test is described as above.

Test [3] deals with T1, EML3 (untagged mouse Eml3 expression construct) (mouse). The experiment in a line: co-IP; co-immunoprecipitation in transfected cells; data not shown.

No constants are given. Whether binding was seen depends on the method and setting. In cells and extracts the contact can be indirect. Some results given as binding are weak or reduced against the parent protein; the word gives no strength. For some assays here: Tags and fused reporters may be left off the sequences shown.

As to Ywhae-FLAG (from UniProt P62259 1-255), the binding entry in test [1] is “binds”.

In the case of “ROM1 (Rod outer segment membrane protein 1), untagged (from UniProt P32958 1-351)”, the binding entry in test [1] is recorded as “no binding”.

Dynll1-FLAG (from UniProt P63168 1-89): the binding result in test [2] was “no binding”; in test [1], “binds”.

B1: 14-3-3 gamma (YWHAG) expressed in transfected cells (protein, UniProt P61982 1-247)
chain: MVDREQLVQKARLAEQAERYDDMAAAMKNVTELNEPLSNEERNLLSVAYKNVVGARRSSWRVISSIEQKTSADGNEKKIEMVRAYREKIEKELEAVCQDVLSLLDNYLIKNCSETQYESKVFYLKMKGDYYRYLAEVATGEKRATVVESSEKAYSEAHEISKEHMQPTHPIRLGLALNYSVFYYEIQNAPEQACHLAKTAFDDAIAELDTLNEDSYKDSTLIMQLLRDNLTLWTSDQQDDDGGEGNN
With B1, the binding result in test [3] is on record as “binds”.

Values taken from PMC13349382.
